Some of the results follow.

This assay deals with T1, OsWOX13 (Oryza sativa, UniProt Q5QMM3 1-267).
T1 sequence: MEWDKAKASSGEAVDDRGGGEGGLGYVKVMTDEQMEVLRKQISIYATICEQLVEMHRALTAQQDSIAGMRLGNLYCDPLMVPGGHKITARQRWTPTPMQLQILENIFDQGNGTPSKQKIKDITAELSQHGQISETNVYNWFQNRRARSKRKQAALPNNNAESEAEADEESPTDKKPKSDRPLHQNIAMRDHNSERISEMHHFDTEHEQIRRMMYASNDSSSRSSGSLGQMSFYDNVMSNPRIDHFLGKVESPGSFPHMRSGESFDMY
Description: protein-binding microarray (RPBM); PBS, 2% BSA, 51.3 ng/ul salmon testes DNA, 50 uM zinc acetate, 200 nM TF, 25 C, 1 h; high values mean tight binding. Conditions: protein: recombinant; tags: N-terminal polyhistidine and DsRed monomer fusion (pET32a); label: CyDye5-dUTP incorporated in the synthesized complementary strand; 3' TTTTT single-stranded linker to array surface; dsDNA, one strand shown. A digest of the protocol: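 Using Ni–NTA, transcription factors fused N-terminally to polyhistidine and DsRed were purified after expression in E. coli BL21-CodonPlus. These were incubated at 200 nM with a blocked, double-stranded custom Agilent array for 1 h at 25 °C in a buffer containing 50 µM zinc acetate, and the array was washed. The binding signal is per-feature fluorescence intensity (arbitrary units) on an Axon 4000B scanner.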
Turning to “ACTTCTAATAGATGACGCCGTTAACTTTTAAACAAATATTCGGAGTCACCTAGTGCAG”, the binding signal was 5610 fluorescence intensity (a.u.).
The same measure for “CCCTTTTCCTCAATCAGCAACCAGATCAACTCTGCACAGACGGAGTCACCTAGTGCAG”: 10900 fluorescence intensity (a.u.); for “TATTATGGTGATTAGATCCATCCTGGTTTGTTACTTAAGGCGGAGTCACCTAGTGCAG”: 12300 fluorescence intensity (a.u.); for “GAATAATTTTCGCTGACCATTGGGTTATATAGTTCGGTAGCGGAGTCACCTAGTGCAG”: 9020 fluorescence intensity (a.u.).
The same measure for “CCCAATAATTAGTTGGCTGCTGCTGTAGTTGACTTATGGACGGAGTCACCTAGTGCAG”: 33900 fluorescence intensity (a.u.).
In the case of “CTGCTATAATTTATCTGGAGGGGCTATTGACAACAGCACTCGGAGTCACCTAGTGCAG”, the binding signal was 7470 fluorescence intensity (a.u.).
For the sequence “TTTAAACTGCTAAACGGTGTGTTTAGTGCGAAAATATTCTCGGAGTCACCTAGTGCAG”, the binding signal is 3600 fluorescence intensity (a.u.).
Consider “TTTATGCTTAATTTGTTGAATAAATAGTTTGTCGAAACACCGGAGTCACCTAGTGCAG”, for which the binding signal was 10200 fluorescence intensity (a.u.).
Regarding “ATTAACCCAATCAAATAACTCTAATTAACAAATGCTAACACGGAGTCACCTAGTGCAG”, the binding signal was 29300 fluorescence intensity (a.u.).
In the case of “CCATGTTAACTGAAAAGGCACCAATAATGTTATCCTTTGGCGGAGTCACCTAGTGCAG”, the binding signal was 5040 fluorescence intensity (a.u.).
To “CCAAATTTCACTCAAAATCTACTTTTGTCCCAAGTTGGAACGGAGTCACCTAGTGCAG” belongs 4170 fluorescence intensity (a.u.).
The same measure for “TGCATTGATTTGGTATAATTGACCATGCTTTGCGATGCAACGGAGTCACCTAGTGCAG”: 57700 fluorescence intensity (a.u.); for “CAACAAACAGATTGGCATTTAAGTTGTTAAATTCTGATCTCGGAGTCACCTAGTGCAG”: 33800 fluorescence intensity (a.u.).
Take “TTTCAAATTTAATTCCCCGATCCTGCGGGTTCGAGCCCTTCGGAGTCACCTAGTGCAG”: the binding signal is 3460 fluorescence intensity (a.u.).
The same measure for “TGAAATTGGAATGATGTGAAGGAAAAGTTGGAAGTTTGTGCGGAGTCACCTAGTGCAG”: 20700 fluorescence intensity (a.u.).
The same measure for “CTAAGTAGACTGATAAACAAATAGGCATGCCATTGTGTAACGGAGTCACCTAGTGCAG”: 7110 fluorescence intensity (a.u.); for “AGTGAATTGAGCAAGATTGCAAGGGCAAGCAGCTATATATCGGAGTCACCTAGTGCAG”: 5840 fluorescence intensity (a.u.).
The same measure for “AGAGATGATTTCACTTTCCCGATACTACTAACCTTGACCACGGAGTCACCTAGTGCAG”: 5500 fluorescence intensity (a.u.); for “GAGATTTGATGACTGGGATGCCACATGGACACCACGACAGCGGAGTCACCTAGTGCAG”: 15900 fluorescence intensity (a.u.).
As to “CCGGTGTAATTTGATTCTCTAAGCGGTTTTAGATCTAAGCCGGAGTCACCTAGTGCAG”, the binding signal was 8050 fluorescence intensity (a.u.).
“ATAATGATAATTAACAAAATAATAGGTAGCTAAATTCATTCGGAGTCACCTAGTGCAG”: the binding signal is 27200 fluorescence intensity (a.u.).
For the sequence “AATGATTATTCTTCTAAACCTTCAAAGCGAATGCAATGTCCGGAGTCACCTAGTGCAG”, the binding signal is 25600 fluorescence intensity (a.u.).
To “ACCAAAGTAATTTCAATCTCATTGGAATTAATTGTTAGCCCGGAGTCACCTAGTGCAG” belongs 28700 fluorescence intensity (a.u.).
The same measure for “TGTGATTTCACTTTGATTTGAAGAATTTTGCTTTGGTTCACGGAGTCACCTAGTGCAG”: 27200 fluorescence intensity (a.u.); for “AATATTGACAGATGAGTTTAGAGTCCACATAGAAATACAACGGAGTCACCTAGTGCAG”: 9020 fluorescence intensity (a.u.); for “TTTAAAGGAACTAATTTAACCTAATTTTGCATGTTAAGGGCGGAGTCACCTAGTGCAG”: 4160 fluorescence intensity (a.u.).
To “TCGGCCTACTAGATTGACGAGGCCCAACACATCAGGCCTTCGGAGTCACCTAGTGCAG” belongs 15700 fluorescence intensity (a.u.).
Regarding “TAATTTATTAATTTATTATTAGAGTATATATATTTCAAGACGGAGTCACCTAGTGCAG”, the binding signal is 6800 fluorescence intensity (a.u.).
The same measure for “AGTACAATGGGCCAAATTAATTGGACCCATGTTTTCGTTGCGGAGTCACCTAGTGCAG”: 6960 fluorescence intensity (a.u.); for “CGTCCAAGTACATAAGATTAATTGCCACCTATAAAATGGGCGGAGTCACCTAGTGCAG”: 6430 fluorescence intensity (a.u.); for “GTGATTACCAGATTTGCCCTTCGTACTGCTTAGAGTCATGCGGAGTCACCTAGTGCAG”: 13500 fluorescence intensity (a.u.).
In the case of “TGAACGTAACTTGATTGGTTAGCCTCGTTATGGTGTGCAACGGAGTCACCTAGTGCAG”, the binding signal is 34400 fluorescence intensity (a.u.).
For the sequence “TTGGTTTCTAATTTGGCTGAATGACTGCAAGTTCCAAGGCCGGAGTCACCTAGTGCAG”, the binding signal is 5830 fluorescence intensity (a.u.).
Turning to “GTATAAACACATATTCGACATGATTAGGAAATGGCCTTCCCGGAGTCACCTAGTGCAG”, the binding signal is 5520 fluorescence intensity (a.u.).
To “CCGTCAATTTGATAGTAAGATCTGTAACGCGTGGTCTTTCCGGAGTCACCTAGTGCAG” belongs 10900 fluorescence intensity (a.u.); to “TGCTAGTTAATATAATCTACTAATTAAAATAGTCGATTGACGGAGTCACCTAGTGCAG”, 6000 fluorescence intensity (a.u.); to “AAATTTTAATTTATATTATAATAGTTGTTGGTCAAATATTCGGAGTCACCTAGTGCAG”, 6360 fluorescence intensity (a.u.).
To “GTAATTTTAAGTATAATTATGGGTTTTGTGTCCAAAATTTCGGAGTCACCTAGTGCAG” belongs 9000 fluorescence intensity (a.u.).
For the sequence “ACTAATTGGAGAGGGAAAAGCACAGGGAATCCCGTGCCATCGGAGTCACCTAGTGCAG”, the binding signal is 12800 fluorescence intensity (a.u.).
With “AGGGAAATCAACACTAATTGCTGCCTTCATACTAGCACATCGGAGTCACCTAGTGCAG”, the binding signal is 19800 fluorescence intensity (a.u.).
To “TAAGCAACCAATTAAGTGATCGACCAACCAATCTGTACACCGGAGTCACCTAGTGCAG” belongs 4240 fluorescence intensity (a.u.); to “TATTCAAATCATTTAAGTAATTATTTATTCTTTTCATATCCGGAGTCACCTAGTGCAG”, 10000 fluorescence intensity (a.u.).

The values above are taken from article PMC7819943, “Rice protein-binding microarrays: a tool to detect cis-acting elements near promoter regions in rice”.
